The record followed here is patent US6482798 (Bayer, dated 2002).

The target of one assay is Factor XIa (Homo sapiens (Human), UniProt P03951 fragment; P03951 fragment, Heavy and light chains are disulfide-linked. Native factor XIa is a disulfide-linked homodimer of this heavy-light unit; one unit is given.). Description: enzyme inhibition with chromogenic substrate HD-Pro-Phe-Arg-pNA, Ki by the method of Bieth. As to the method:
(§1) The enzyme/inhibitor solution was preincubated at room temperature for 4 hours. 180 μl of each solution was then added to the well of a microtitre plate and mixed with 20 μl of substrate solution. The change in the absorption was measured at 405 nm for 10 min. The rate of the enzyme reactions was determined and the K_i value was calculated from this according to the method of Bieth (Biochemical Medicine 32: 387–97 (1984)).
(§2) The kinetic constants of the complexation with the enzymes plasmin factor XIa, bovine trypsin and chymotrypsin were determined by the same procedure. The substrates were Chromozym PL for plasmin, HD-Pro-Phe-Arg-pNA for factor XI, S-2444 for trypsin and Suc-Phe-Leu-Phe-pNA for chymotrypsin.

The target of another assay is bovine trypsin (bovine, UniProt P00760 24-246). Nature of the assay: enzyme inhibition with chromogenic substrate S-2444, Ki by the method of Bieth. As to the method: as §1, §2
The next assay addresses T1, human plasma kallikrein (human, UniProt P03952 20-638).
T1 construct: The active enzyme has heavy and light chains cut from one precursor
Nature of the assay: enzyme inhibition with chromogenic substrate S-2302, 4 h preincubation, Ki by the method of Bieth. As to the method:
1 unit of human plasma kallikrein was diluted to 16 ml with buffer (0.05 M tris/0.1 M NaCl, 0.05% Tween 20; pH 8.2). 200 μl of this enzyme solution were mixed with decreasing, volumes of test buffer (250, 240, 230, 220, 200, 180, 170, 150, 100 and 50 μl) and then increasing amounts of inhibitor in the assay buffer were added (10, 20, 30, 50, 70, 80, 100, 150, 200 and 250 μl; concentration 0.7 μg/μl).
as §1

For the next assay, the target named is bovine chymotrypsin (bovine, UniProt P00766). Description: enzyme inhibition with chromogenic substrate Suc-Phe-Leu-Phe-pNA, Ki by the method of Bieth. As to the method:
as §1, §2

Another assay addresses Plasmin (Homo sapiens (Human), UniProt P00747 97-580; P00747 581-810, Heavy chain A and light chain B are disulfide-linked in the active two-chain enzyme.). Nature of the assay: enzyme inhibition with chromogenic substrate Chromozym PL, Ki by the method of Bieth. Here is the method:
as §1, §2

bovine trypsin, sequence (P00760 24-246): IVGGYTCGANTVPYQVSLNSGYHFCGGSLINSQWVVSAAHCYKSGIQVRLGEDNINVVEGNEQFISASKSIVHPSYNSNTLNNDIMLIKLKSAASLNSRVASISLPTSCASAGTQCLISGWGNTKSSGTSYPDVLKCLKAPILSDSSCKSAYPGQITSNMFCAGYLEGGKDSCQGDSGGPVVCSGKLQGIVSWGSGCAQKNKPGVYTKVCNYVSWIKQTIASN
Factor XIa, sequence (P03951 19-387 limits assumed, form in doubt, chain 1 of 2): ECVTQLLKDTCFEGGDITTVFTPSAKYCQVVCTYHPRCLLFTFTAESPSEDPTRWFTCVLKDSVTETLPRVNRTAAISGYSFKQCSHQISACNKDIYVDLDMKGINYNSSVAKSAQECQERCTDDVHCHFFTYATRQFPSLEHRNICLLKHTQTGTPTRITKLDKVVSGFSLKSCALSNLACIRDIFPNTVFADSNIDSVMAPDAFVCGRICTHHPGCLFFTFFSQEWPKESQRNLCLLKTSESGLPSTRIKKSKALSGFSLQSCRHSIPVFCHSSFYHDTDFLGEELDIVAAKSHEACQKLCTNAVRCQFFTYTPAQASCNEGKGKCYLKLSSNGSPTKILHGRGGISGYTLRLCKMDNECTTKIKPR
Factor XIa, sequence (P03951 388-625 limits assumed, form in doubt, chain 2 of 2): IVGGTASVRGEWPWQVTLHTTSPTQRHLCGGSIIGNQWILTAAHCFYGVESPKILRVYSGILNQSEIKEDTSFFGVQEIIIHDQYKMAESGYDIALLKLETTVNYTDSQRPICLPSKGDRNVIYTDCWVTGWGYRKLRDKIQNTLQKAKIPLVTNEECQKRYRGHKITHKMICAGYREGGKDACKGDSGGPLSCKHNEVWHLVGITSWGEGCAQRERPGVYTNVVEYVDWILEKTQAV
Plasmin, sequence (P00747 97-580 limits assumed, form in doubt, chain 1 of 2): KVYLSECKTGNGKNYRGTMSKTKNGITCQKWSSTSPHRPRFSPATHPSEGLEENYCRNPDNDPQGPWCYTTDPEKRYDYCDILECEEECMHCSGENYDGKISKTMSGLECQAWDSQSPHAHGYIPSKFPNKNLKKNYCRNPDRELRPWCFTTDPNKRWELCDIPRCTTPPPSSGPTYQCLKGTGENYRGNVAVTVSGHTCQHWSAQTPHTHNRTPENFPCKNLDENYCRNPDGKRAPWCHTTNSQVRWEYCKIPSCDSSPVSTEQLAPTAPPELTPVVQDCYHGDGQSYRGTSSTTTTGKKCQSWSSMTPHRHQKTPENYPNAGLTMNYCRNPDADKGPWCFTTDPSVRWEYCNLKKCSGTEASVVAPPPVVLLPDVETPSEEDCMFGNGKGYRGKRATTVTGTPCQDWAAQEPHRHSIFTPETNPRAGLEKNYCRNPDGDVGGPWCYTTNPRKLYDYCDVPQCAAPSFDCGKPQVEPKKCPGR
Plasmin, sequence (P00747 581-810 limits assumed, form in doubt, chain 2 of 2): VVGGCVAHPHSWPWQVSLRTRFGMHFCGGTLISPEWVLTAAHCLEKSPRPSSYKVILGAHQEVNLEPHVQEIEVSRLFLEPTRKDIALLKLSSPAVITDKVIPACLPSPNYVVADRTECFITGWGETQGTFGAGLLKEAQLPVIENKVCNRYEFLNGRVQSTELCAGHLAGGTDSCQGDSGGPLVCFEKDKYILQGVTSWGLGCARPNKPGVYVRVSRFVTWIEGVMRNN
human plasma kallikrein, sequence (P03952 20-638 limits assumed): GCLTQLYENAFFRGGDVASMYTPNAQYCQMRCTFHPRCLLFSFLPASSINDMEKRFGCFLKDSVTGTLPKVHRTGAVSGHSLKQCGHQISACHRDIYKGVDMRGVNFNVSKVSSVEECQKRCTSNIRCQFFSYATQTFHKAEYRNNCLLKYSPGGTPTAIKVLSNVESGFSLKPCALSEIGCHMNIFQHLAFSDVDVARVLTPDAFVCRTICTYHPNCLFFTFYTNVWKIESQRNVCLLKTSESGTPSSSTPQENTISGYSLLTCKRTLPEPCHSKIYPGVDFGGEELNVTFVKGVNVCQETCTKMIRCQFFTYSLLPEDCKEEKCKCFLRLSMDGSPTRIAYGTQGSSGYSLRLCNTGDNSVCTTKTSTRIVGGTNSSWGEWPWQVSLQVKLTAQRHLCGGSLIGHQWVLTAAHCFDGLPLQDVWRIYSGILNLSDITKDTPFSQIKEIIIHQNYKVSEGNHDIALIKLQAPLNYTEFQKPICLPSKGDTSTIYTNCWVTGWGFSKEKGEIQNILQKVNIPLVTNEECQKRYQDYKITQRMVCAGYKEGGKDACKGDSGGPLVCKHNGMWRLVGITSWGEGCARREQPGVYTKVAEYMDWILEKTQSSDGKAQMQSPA

B1: DesPro2-Ser10-Arg15-Ala17-Asp24-Thr26-Glu31-Asn41-Glu53-aprotinin (designed binder)
chain: RDFCLEPPSTGPCRAAIIRYFYDATAGLCETFVYGGCRANRNNFKSAEDCMETCGGA
notes: also called DesPro-Ser10-Arg15-Ala17-Asp24-Thr26-Glu31-Asn41-Glu53-aprotinin
Regarding B1, the Ki with Factor XIa was 0.5 nM; in the assay with bovine trypsin, 0.02 nM; in the assay with human plasma kallikrein it was 0.02 nM; with bovine chymotrypsin, 9 nM; with Plasmin, 0.5 nM.
